# Values joined by “and” are separate entries in the source; they are usually repeats but may differ in a detail not shown here. Equal values may be shown once. The campaign covered roughly 350,000 compounds. About 700 (0.2%) were called active. Calls come from the whole dose curve; as a rule, active = well fitted inhibition curve with a large enough effect; inconclusive = small, poorly fitted or top-dose-only effect; inactive = flat fitted curve, though single readings scatter. Only a part is listed here, and it is no random draw. More than one record can exist for a structure, and the calls need not agree. Numbered stars: 1 amine (or outer) side, 2 acyl side, 3 side chain; on linkers, the order of the positions; unused ones are H or OH. Bridge positions count the residues as written; N and C are the ends. Square brackets hold non-standard residues; d marks the D form. Peptide text beside a SMILES is read from it. I, II: the chains in the order shown. Actinocin(9to1) = Cc1c2oc3c(C)ccc(C(=O)[*:1])c3nc-2c(C(=O)[*:2])c(N)c1=O; aThr = C[C@H](O)[C@H](N)C(=O)O; NMeV = CN[C@H](C(=O)O)C(C)C; Sar = CNCC(=O)O
# Biological target: RecQ-like DNA helicase BLM (Homo sapiens) (UniProt P54132)
# UniProt P54132, sequence (P54132 whole entry, looked up): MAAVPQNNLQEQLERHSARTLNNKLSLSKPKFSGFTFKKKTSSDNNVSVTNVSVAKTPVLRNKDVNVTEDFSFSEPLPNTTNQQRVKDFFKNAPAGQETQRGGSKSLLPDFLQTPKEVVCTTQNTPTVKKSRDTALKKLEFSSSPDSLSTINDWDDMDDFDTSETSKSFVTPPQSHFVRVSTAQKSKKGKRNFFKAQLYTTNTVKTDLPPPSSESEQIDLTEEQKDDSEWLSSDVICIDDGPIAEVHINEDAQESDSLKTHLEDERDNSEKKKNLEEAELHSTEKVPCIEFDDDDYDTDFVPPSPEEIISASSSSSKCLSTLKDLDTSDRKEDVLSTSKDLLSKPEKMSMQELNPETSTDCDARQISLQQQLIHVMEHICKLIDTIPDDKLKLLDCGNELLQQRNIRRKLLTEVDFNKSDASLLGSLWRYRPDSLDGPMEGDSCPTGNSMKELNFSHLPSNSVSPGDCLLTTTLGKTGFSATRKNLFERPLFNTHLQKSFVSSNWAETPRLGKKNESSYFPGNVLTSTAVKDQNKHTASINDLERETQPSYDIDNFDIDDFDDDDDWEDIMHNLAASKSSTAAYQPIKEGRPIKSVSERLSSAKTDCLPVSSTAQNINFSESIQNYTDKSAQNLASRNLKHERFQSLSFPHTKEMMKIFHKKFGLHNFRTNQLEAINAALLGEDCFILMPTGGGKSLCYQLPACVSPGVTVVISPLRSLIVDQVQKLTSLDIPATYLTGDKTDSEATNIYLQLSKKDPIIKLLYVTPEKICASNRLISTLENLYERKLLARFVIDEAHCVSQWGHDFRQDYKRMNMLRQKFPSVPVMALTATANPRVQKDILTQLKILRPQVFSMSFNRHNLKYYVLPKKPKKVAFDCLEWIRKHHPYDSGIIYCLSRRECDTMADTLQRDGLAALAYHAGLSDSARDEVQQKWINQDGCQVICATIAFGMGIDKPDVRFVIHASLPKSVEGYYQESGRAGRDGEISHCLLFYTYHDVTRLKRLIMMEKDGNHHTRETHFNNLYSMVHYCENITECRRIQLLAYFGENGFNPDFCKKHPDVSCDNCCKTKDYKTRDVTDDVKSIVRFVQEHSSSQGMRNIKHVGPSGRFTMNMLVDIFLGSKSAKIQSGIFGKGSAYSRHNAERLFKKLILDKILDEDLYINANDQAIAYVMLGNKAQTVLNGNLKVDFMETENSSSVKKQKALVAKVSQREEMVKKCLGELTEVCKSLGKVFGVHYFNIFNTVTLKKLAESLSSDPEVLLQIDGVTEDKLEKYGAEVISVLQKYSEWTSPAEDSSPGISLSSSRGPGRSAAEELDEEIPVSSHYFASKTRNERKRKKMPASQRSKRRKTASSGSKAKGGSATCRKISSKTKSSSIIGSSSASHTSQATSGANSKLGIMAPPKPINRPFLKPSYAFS
# Experiment: qHTS Assay for Inhibitors of Bloom's syndrome helicase (BLM); note: nearly all actives have a fitted effect of over 35% in size
# Conditions: recombinant BLM DNA unwinding, fluorescence dequenching; series mostly up to 56.1 µM; activity change, negative = inhibition: at the top concentration
# Description: Survival of cells and the faithful propagation of the genome depend on elaborate mechanisms of detecting and repairing DNA damage. Treatment of advanced cancer relies on radiation therapy or chemotherapy, which kill cancer cells by causing extensive DNA damage. It is often found, that cancer cells develop resistance to therapy through enhanced activity of DNA repair functions; this has led to an increased interest in developing drugs that interfere with DNA repair, which could sensitize cancer cells to conventional therapy.
# This validation qHTS assay pertains to human BLM, which is important in resolving abnormal DNA structures formed during replication or homologous recombination. Shutting down the expression of BLM leads to chromosomal instability and higher radiation sensitivity in cultured cells.
# The validation assay was a fluorescence quenching based kinetic qHTS for BLM Helicase DNA unwinding. The activity was measured as ATP-dependent separation of a 20-bp DNA duplex extended by 30-nt single-stranded tails (forked duplex). The forked DNA substrate was tagged with rhodamine fluorophore (carboxytetramethyl rhodamine, TAMRA) and BHQ-2 (Black Hole Quencher 2) dark quencher. Strand separation results in an increase in the fluorescence of TAMRA (excitation 525 nm, emission 598 nm). This substrate construct operates in a red-shifted region where very few compound library members have been noted to fluoresce (PubChem AIDs 593 and 594). An additional feature of the assay is the inclusion of 2.5 ug/ml poly (dIdC), to reduce interference by compounds such as DNA intercalators, a major source of false inhibitors.
# Ian Hickson, University of Oxford
# Opher Gileadi, Structural Genomics Consortium, University of Oxford
# Screening Center PI: Austin, C.P.
# Screening Center: NIH Chemical Genomics Center [NCGC]
# Three uL of reaction buffer (25 mM Tris-HCl (pH 8.0), 5 mM NaCl, 2 mM MgCl2, 1mM DTT, 0.01% Tween- 20, and 2.5 ug/ml poly(dI-dC), including enzyme (50 nM BLM), were dispensed into a 1536-well Greiner black assay plate via solenoid-valve based nanoliter dispensers. Compounds (23 nl each in columns 5-48) and control (23 nl each in column 2 as dose-response) were transferred via a Kalypsys pintool equipped with a 1536-pin array. The plates were incubated for 15 min at room temperature, and then 1 ul of substrates (200 nM DNA and 2 mM ATP, final concentrations) was added to start the reaction. The plate was transferred into a ViewLux high-throughput CCD imager where the reaction progress was measured in a discontinuous kinetic mode (two reads spaced 2 hours apart, with intermediate room temperature incubation of the covered assay plate) by using standard red-fluorescence optics (excitation filter 525 nm, emission filter 598 nm). Enzyme-free and vehicle (DMSO) controls were included for signal normalization.
# Potency is the fitted concentration of half-maximal effect.
SMILES,"activity change, negative = inhibition",Potency
CC(C)(C)c1ccc(S(=O)(=O)/C=C\C#N)cc1,inactive: -5.57%,–
COC(=O)c1cc(O)cc(OC)c1Oc1cc(C)cc(O)c1C(=O)O,–,active: 8.91 µM
C[C@](N)(Cc1ccc(O)c(O)c1)C(=O)O,–,inactive
CN(CCC#N)C(=O)COC(=O)c1c2c(nc3ccccc13)/C(=C/c1ccco1)CC2,–,active: 14.1 µM
CN(C)[C@@H]1C(=O)C(C(N)=O)=C(O)[C@]2(O)C(=O)C3=C(O)c4c(O)ccc(Cl)c4[C@H](O)[C@H]3C[C@@H]12,inactive: -1.58%,–
CCCCCCCCCCCCCCC[C@H](O)[C@@H](N)CO,inactive: -16.7%,–
CCCn1c(=O)[nH]c(=O)c2[nH]cnc21,–,inactive
CN/C(=C\[N+](=O)[O-])NCCSCc1ccc(CN(C)C)o1,–,inactive
Cn1c(=O)[nH]c2ncn(C)c2c1=O,inactive: 1.4%,–
NC1CCN(c2cccc(Cl)n2)CC1,–,inactive
COc1cc(NCc2ccc3nc(N)nc(N)c3c2C)cc(OC)c1OC,inactive: -24.8%,–
Cc1ccc(S(=O)(=O)N[C@@H](Cc2ccccc2)C(=O)CCl)cc1,inactive: -10.1%,–
CC(C)NCC(O)COc1ccc(CCOCC2CC2)cc1 (stereo not given),–,inactive
COc1cc(/C=C/C(=O)Nc2nc3ccc(S(=O)(=O)N(C)C)cc3s2)cc(OC)c1OC,–,active: 5.01 µM
CC12CCC3c4ccc(O)cc4CCC3C1CCC2=O (stereo not given),inactive: -3.91%,–
CC(=O)N[C@@H](Cc1c[nH]c2ccccc12)C(=O)OCc1cc(C(F)(F)F)cc(C(F)(F)F)c1,inactive: -16.3%,–
NC/C=C/C(=O)O,inactive: 5.7%,–
N[C@@H](CO)C(=O)O,–,inactive
CC1=C(CC(=O)O)c2cc(F)ccc2/C1=C/c1ccc(S(C)=O)cc1 (stereo not given),inactive: -3.92%,–
COC(=O)C1C(O)CCC2CN3CCc4c([nH]c5ccccc45)C3CC21 (stereo not given),inactive: -1.42%,–
Cc1ccc2c(c1C)NC(C(=O)O)C1CC=CC21 (stereo not given),–,active: 17.8 µM
COc1ccc(C)cc1Nc1nc(N)c2cc(OC)c(OC)cc2n1,–,active: 20 µM
O=C(NCc1ccco1)c1cccn2c(=O)c3cc4ccccc4cc3nc12,–,active: 20 µM
NS(=O)(=O)c1cc2c(cc1Cl)NC=NS2(=O)=O,–,inactive
Cn1c(=O)c2[nH]c(-c3ccccc3)nc2n(C)c1=O,inactive: -1.04%,–

SMILES,"activity change, negative = inhibition",Potency
O=C(N/N=C1/C(=O)c2cccc3cccc1c23)c1ccc(Cl)cc1,–,active: 10 µM
NC(N)=NC(=O)Cc1c(Cl)cccc1Cl,–,inactive
O=c1oc2ccccc2c2oc3cc(O)c(O)cc3c12,–,inactive and active: 10 µM
CNC1=C(Cl)C(=O)c2ccncc2C1=O,–,active: 17.8 µM
COc1ccc(-c2nc3c(c(SCC(=O)Nc4ccc(C(=O)O)cc4)n2)Cc2ccccc2O3)cc1,–,active: 7.08 µM
NC/C=C\C(=O)O,inactive: 1.23%,–
NCCc1cnc[nH]1,–,inactive
NCCCC(=O)O,–,inactive
COc1ccc2nc(-n3c(O)c(C4=c5ccccc5=NC4=O)[nH]c3=S)sc2c1,–,active: 20 µM
CCCC1OC2CC3C4CCC5=CC(=O)C=CC5(C)C4C(O)CC3(C)[C@]2(C(=O)CO)O1 (stereo not given in full),inactive: -10.2%,–
COc1ccc(-c2cc(=O)oc3c(O)c(O)ccc23)cc1,–,active: 10 µM
CCOC(=O)c1cc2c(=O)n3ccccc3nc2n(Cc2ccco2)c1=NC(=O)c1ccc(OC)cc1,inactive: -2.45%,–
COc1ccc2c(c1OC)C(=O)O[C@H]2C1c2c(cc3c(c2OC)OCO3)CCN1C (stereo not given in full),–,inactive
NC(N)=NC(N)=Nc1cccc(Cl)c1,–,inactive
C[C@@](N)(Cc1ccc(O)c(O)c1)C(=O)O,–,inactive
CCn1ncc(Cl)c1C(=O)Nc1ccc2c(c1)CCC2,–,active: 25.1 µM
CC[C@]1(O)C[C@H]2CN(CCc3c([nH]c4ccccc34)[C@@](C(=O)OC)(c3cc4c(cc3OC)N(C=O)[C@H]3[C@@](O)(C(=O)OC)[C@H](OC(C)=O)[C@]5(CC)C=CCN6CC[C@]43[C@@H]65)C2)C1,inactive: 3.39%,–
N[C@H](Cc1cnc[nH]1)C(=O)O,inactive: -4.39%,–
COC(=O)[C@@H]1C2CC3c4[nH]c5cc(OC)ccc5c4CCN3CC2C[C@H](OC(=O)c2cc(OC)c(OC)c(OC)c2)C1OC (stereo not given in full),inactive: -12.7%,–
CC(=O)OCC(=O)[C@@]1(O)CCC2C3CCC4=CC(=O)CCC4(C)C3C(=O)CC21C (stereo not given in full),inactive: -0.919%,–
Oc1ccc(/C=C/c2cc(O)cc(O)c2)cc1,–,inactive
COC(=O)[C@@H]1[C@@H]2C[C@H]3c4[nH]c5ccccc5c4CCN3C[C@@H]2CC[C@@H]1O,–,inactive
Oc1c(Cl)cc(Cl)c(Cl)c1Cc1c(O)c(Cl)cc(Cl)c1Cl,inactive: -13.2%,–
CCCc1c(-c2ccc(O)cc2)nn(-c2ccc(O)cc2)c1-c1ccc(O)cc1,–,inactive
COc1ccc(CNCCC(c2ccccc2)c2ccc3c(c2)OCO3)cc1 (stereo not given),inactive: -2.75%,–

SMILES,"activity change, negative = inhibition",Potency
O=C1c2sc3nc4n(c(=O)c3c2CCC1Br)CCCCC4 (stereo not given),–,active: 25.1 µM
O=c1[nH]c2cc([N+](=O)[O-])c([N+](=O)[O-])cc2[nH]c1=O,–,inactive
CCC1Cc2cc(O)ccc2C2=C1c1ccc(O)cc1CC2CC (stereo not given),inactive: -10.2%,–
CC(=O)/C(C)=N\O,inactive: 5.22%,–
COc1ccc(NC(=S)Nc2ccc3nsnc3c2)cc1,–,active: 3.98 µM
COC(=O)Nc1nc2ccc(C(=O)c3cccs3)cc2[nH]1,–,inactive
Nc1ccn([C@H]2CC[C@@H](CO)O2)c(=O)n1,–,inactive
NC[C@](O)(CS(=O)(=O)O)c1ccc(Cl)cc1,inactive: 4.69%,–
O=Cc1ccc2oc3nc4n(c(=O)c3c(=O)c2c1)CCCS4,–,active: 28.2 µM
COc1cccc(-c2cc(=O)c3ccccc3o2)c1N,inactive: -1.78%,–
CN(C)CCOC(C)(c1ccccc1)c1ccccn1 (stereo not given),–,inactive
O=C(C1CCCCC1)N1CC(=O)N2CCc3ccccc3C2C1 (stereo not given),–,inactive
CC(C)Cn1c(N)c(C(=O)COC(=O)c2cc(-c3ccco3)nc3ccccc23)c(=O)n(C)c1=O,inactive: 2.58%,–
Nc1nc2ccc(OC(F)(F)F)cc2s1,–,inactive
Oc1cc(O)c2c(c1)O[C@H](c1ccc(O)c(O)c1)[C@H](O)C2,–,inactive
O=C(CCN1CCN(c2ccccc2)CC1)N/N=C/c1ccc(O)c(O)c1O,–,active: 11.2 µM
O=C(O)c1cc(=O)cc(C(=O)O)[nH]1,inactive: -2.83%,–
Cc1ccc(NC(=O)CN2C(=O)S/C(=C/c3ccc(O)c([N+](=O)[O-])c3)C2=O)cc1C,–,active: 25.1 µM
O=C(O)c1cc(N=Nc2ccc(-c3ccc(N=Nc4ccc(O)c(C(=O)O)c4)cc3)cc2)ccc1O,–,active: 17.8 µM
COc1ccc2c(c1OC)C(=O)O[C@@H]2[C@H]1c2c(cc3c(c2OC)OCO3)CCN1C,–,inactive
COc1ccc(OC)c(NC(=O)COC(=O)c2cc3c(s2)CCC3)c1,–,active: 15.8 µM
Cc1cc(C(C)(C)C)c(O)c(C)c1CC1=NCCN1,–,inactive
NC(Cc1ccc(Cl)cc1)C(=O)O (stereo not given),inactive: -0.398%,–
CC(N)=NCCCC[C@H](N)C(=O)O,inactive: 1.41%,–
COc1cc2c(cc1O)CCC1C2CC[C@@]2(C)C1CC[C@@H]2O (stereo not given in full),inactive: -1.42%,–

SMILES,"activity change, negative = inhibition",Potency
CC(C)(C(=O)O)c1ccc(C(O)CCCN2CCC(C(O)(c3ccccc3)c3ccccc3)CC2)cc1 (stereo not given),–,inactive
CC(C)N(C(=O)Nc1ccc2nsnc2c1)C(C)C,–,active: 5.62 µM
CC(C)(C)NC[C@@H](O)COc1nsnc1N1CCOCC1,inactive: -14%,–
COc1ccc2c(c1OC)C(=O)OC2C1c2c(cc3c(c2OC)OCO3)CCN1C (stereo not given),–,inactive
CCCN1C[C@H](CSC)C[C@@H]2c3cccc4[nH]cc(c34)C[C@H]21,–,inactive
O=C1OC2(c3ccccc31)c1cc(I)c(O)c(I)c1Oc1c2cc(I)c(O)c1I,–,active: 22.4 µM
COc1cc(O)c2c(c1)oc(=O)c1c3cc(O)c(O)cc3oc21,–,active: 17.8 µM and active: 12.6 µM
CCC(CNc1cc(OC)cc2cccnc12)NC1CCCCC1 (stereo not given),–,active: 8.91 µM
CC(=O)SC1CC2=CC(=O)CC[C@@]2(C)C2CC[C@@]3(C)[C@@H](CC[C@@]34CCC(=O)O4)C12 (stereo not given in full),inactive: -8.34%,–
COc1cc2nc(N3CCN(C(=O)[C@H]4COc5ccccc5O4)CC3)nc(N)c2cc1OC,inactive: 23.8%,–
COC(=O)c1sc(-c2cccs2)cc1NC(=O)/C=C/C(=O)O,–,active: 15.8 µM
CCCCCC[C@@H]([C@@H](C)O)n1cnc2c(N)ncnc21,inactive: 7.88%,–
CN1C(C)(C)CCCC1(C)C,–,inactive
Cc1cn(C2C=CC(CO)O2)c(=O)[nH]c1=O (stereo not given),inactive: -11.3%,–
Cc1ccccc1NC1=C/C(=N\S(=O)(=O)c2cccs2)c2ccccc2C1=O,–,active: 20 µM
Cc1oncc1C(=O)Nc1ccc(C(F)(F)F)cc1,–,inactive
O=C(O)c1cc(O)c2c(c1)C(=O)c1cccc(O)c1C2=O,inactive: 3.07%,–
Fc1ccc(C(c2ccc(F)cc2)N2CCN(C/C=C/c3ccccc3)CC2)cc1,–,inactive
CCOC(=O)C1=C[C@@]2(CC)CCCN3CCc4c(n1c1ccccc41)C32 (stereo not given in full),inactive: 3.15%,–
Cc1cc(C)c(S(=O)(=O)Nc2cc(SCC(=O)O)c(O)c3ccccc23)cc1C,–,active: 15.8 µM
O=[N+]([O-])c1ccc(-c2nc(-c3ccc(F)cc3)c(-c3ccncc3)[nH]2)cc1,inactive: -6.92%,–
COc1ccc(NC(=O)/C(C#N)=C\c2ccc(Br)o2)cc1,inactive: -20.5%,–
O=C(O)C1Nc2c(O)cccc2C2C=CCC12 (stereo not given),–,active: 4.47 µM
"Cc1c2oc3c(C)ccc(C(=O)N[C@@H]4C(=O)N[C@@H](C(C)C)C(=O)N5CCC[C@@H]5C(=O)N(C)CC(=O)N(C)[C@@H](C(C)C)C(=O)O[C@H]4C)c3nc-2c(C(=O)N[C@@H]2C(=O)N[C@@H](C(C)C)C(=O)N3CCC[C@@H]3C(=O)N(C)CC(=O)N(C)[C@@H](C(C)C)C(=O)O[C@H]2C)c(N)c1=O (I: [aThr]V[dP][Sar][NMeV] / II: [aThr]V[dP][Sar][NMeV]; ester I:1-I:C, II:1-II:C; linker I:N-II:N via Actinocin(9to1))",inactive: -17.9%,–
CN=C(NC#N)Nc1ccc(C2=NNC(=O)C[C@@H]2C)cc1,inactive: 5.76%,–

# From PubChem BioAssay AID2528 (National Center for Advancing Translational Sciences (NCATS), 2010)
